The values that follow come from PubChem BioAssay (NCI).

SMILES strings stand for the structures. Where “and” joins values, the source holds several entries; their conditions need not be identical. Equal entries are not always repeated.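 Where inhibition never reached the appropriate level, the endpoint shown equals the highest concentration tested. Otherwise, values were interpolated linearly from a five-concentration, 48-hour dose response in 96-well plates. GI50 is the concentration that inhibits growth by half. TGI denotes the concentration required for complete inhibition of growth.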

This experiment relates to NCI-H322M lung. The experiment is described as follows: NCI tumour cell line growth inhibition, 48 h.

On to `Cc1ccc2nc3c(Cl)c(C)c(=O)cc-3sc2c1`, for which the GI50 was over 100 µM and the TGI is over 100 µM. `O=C(O)CCC(NC(=S)S)C(=O)O.[Na+].[Zn+2]` (stereo not given): the GI50 was over 50 µM and the TGI is over 50 µM. With `O=c1c2c3c(sc2n2c(-c4cc(-c5ccccc5)nn4-c4ccccc4)nnc2n1Cc1ccccc1)CCCC3`, the GI50 is over 100 µM and the TGI was over 100 µM. With `Cc1nnc(N/N=C(/C(=O)C(C#N)c2ccccc2)C(C#N)c2ccccc2)n1N` (stereo not given), the TGI amounted to 28.7 µM. Still for that read-out and setting: under `C=C[C@@H]1C(CO)=CCC2[C@H]1CCC1C(C)(C)C(=O)CC[C@]21C` (stereo not given in full) stands over 100 µM; under `Cc1ccc(S(=O)(=O)N/N=C(\c2nc3ccc([N+](=O)[O-])cc3[nH]c2=O)C(O)c2ccccc2Cl)cc1` (stereo not given), over 100 µM. In the case of `C=C1CC2(OC1=O)C(=O)N(CCCN1C(=O)C3(CC(=C)C(=O)O3)c3ccccc31)c1ccccc12` (stereo not given), the GI50 was 11.2 µM and the TGI came to 23.2 µM. As for `CCCCC1c2c([nH]c3ccccc23)C2C(=O)N(c3ccc(OC)cc3)C(=O)C2C1CCC` (stereo not given), the TGI is over 10 µM.

As for `O=c1c2ccccc2nc2[nH][nH]c(=S)n12`, the TGI is over 100 µM.

As for `CC1(c2ccccc2)CC(c2ccccc2)=NO1` (stereo not given), the TGI was over 100 µM. As for `CC1(C)CC[C@H](C2=CC(=O)c3c(O)ccc(O)c3C2=O)O1`, the GI50 is 8.53 µM and 3.03 µM and 2.27 µM; the TGI was 18.2 µM and 9.4 µM and 4.68 µM. `Cn1cc(-c2csc(-c3cn(C)c4ccccc34)n2)c2cnccc21`: the GI50 was 1.63 µM and the TGI came out at 3.1 µM. On the same counts, the results for `O=S(=O)(CCOCc1ccc(-c2ccc3ncnc(Nc4ccc(OCc5cccc(F)c5)c(Cl)c4)c3c2)o1)c1ccccc1` are 2.56 µM and over 25 µM. The compound `COc1cc(C2SCC(=O)N2c2ccc(NC(=O)c3ccc(N4C(=O)CSC4c4cc(OC)c(OC)c(OC)c4)cc3)cc2)cc(OC)c1OC` (stereo not given) registered a TGI of over 100 µM. Turning to `O=c1cc(N=P(c2ccccc2)(c2ccccc2)c2ccccc2)n(-c2ccccc2)c(=O)n1-c1ccccc1`, the TGI is 92.2 µM. The compound `CCN(CC)CC(=O)N1CCc2c([nH]c3ccccc23)C1c1cccnc1` (stereo not given) showed a TGI of over 100 µM. With `c1ccc2nc3c(cc4ccccn43)nc2c1`, the GI50 is 41.8 µM and the TGI is over 100 µM. `O=c1c(Cl)c(Cl)cnn1CCc1ccncc1` showed a TGI of 31.2 µM. The compound `O=C1/C(=C\c2cccc(Oc3ccccc3)c2)S(=O)(=O)C(c2ccccc2)N1Cc1ccccc1` (stereo not given) yielded a TGI of over 100 µM. Take `CCCCCCCCCCCCCCCCCCNC(=O)[C@H]1CSC(c2cccs2)N1` (stereo not given in full): the GI50 was 2.14 µM and the TGI is over 50 µM. `CC12CC(=O)C3C(C(=O)C1)C32C` (stereo not given) yielded a TGI of over 100 µM.

On to `NC(=O)C1(N2CCCCC2)CCN(CCCC(=O)c2ccc(F)cc2)CC1`, for which the GI50 is 5.54 µM and the TGI was over 100 µM.

In turn, `COc1ccc(CC(O)CN2CCOCC2)cc1` (stereo not given) registered a TGI of over 100 µM.

Regarding `O=C(N=Nc1cc(Cl)ccc1Cl)NNc1cc(Cl)ccc1Cl`, the TGI was 96.1 µM.

In turn, `CC1(Cc2ccccc2)NC(=S)NC1=O` (stereo not given) displayed a TGI of over 100 µM. `CC(=O)OCC1OC(n2cc([N+](=O)[O-])c(=O)[nH]c2=O)C(OC(C)=O)C(OC(C)=O)C1OC(C)=O` (stereo not given) yielded a TGI of over 100 µM.

As to `CCC1=C[C@@H]2CN(C1)Cc1c([nH]c3ccccc13)[C@@](C(=O)OC)(c1cc3c(cc1OC)N(C)[C@H]1[C@@](O)(C(=O)OC)[C@H](OC(C)=O)[C@]4(CC)[C@@H]5C[C@@H]5CN5CC[C@]31[C@@H]54)C2`, the GI50 was under 0.005 µM and the TGI was 12.1 µM. Consider `CC(=O)N(C(C)=O)C1=C2c3ccccc3N(S(=O)(=O)c3ccccc3)C2n2c(=O)n(-c3ccccc3)c(=O)n2C1` (stereo not given), for which the TGI was over 100 µM. On the same count and under the same terms, to `CC/C(=N\NS(=O)(=O)c1ccccc1)c1ccccc1` belongs over 100 µM. With `COCCOCCOCc1n(Cc2ccc3ccccc3n2)c2ccccc2[n+]1Cc1ccc2ccccc2c1`, the GI50 is 1.08 µM and the TGI worked out at 7.09 µM. `Cc1cc(=O)c2c([nH]1)NS(=O)(=O)NC2=O` gave a TGI of over 100 µM. Consider `CNC(=O)c1cc2c(Oc3ccc(NC(=O)C4(C(=O)Nc5ccc(F)cc5)CC4)cc3)ccnc2cc1OC`, for which the GI50 is 4.69 µM and the TGI is over 100 µM. `CC(O)C1CC1(CO)CNc1cc(Cl)nc(N)n1` (stereo not given) displayed a TGI of over 100 µM. Take `COc1cc(C2CC(C)(Nc3ccccc3)Oc3cc4c(cc32)OCO4)cc(OC)c1OC` (stereo not given): the TGI is over 100 µM. With `Cc1cc(N(CCC#N)CCC#N)ccc1/C=C1N=C(/C=C/c2ccccc2)OC(=O)N\1`, the TGI is over 100 µM. On to `CC(=O)[CH-]C(C)=O.[CH2-]C.[CH2-]C.[Tl+3]`, for which the GI50 was over 100 µM and the TGI was over 100 µM. In turn, `O=c1oc(-c2ccc(O)c(O)c2)cc2cccc(O)c12` showed a TGI of 43.2 µM. `CSc1cc(Cl)c(C)cc1S(=O)(=O)NC(=O)NNc1ccc(Cl)cc1` displayed a TGI of over 100 µM. `C=CCNC(=S)/N=C/c1c(O)c2ccccc2oc1=O` yielded a TGI of over 100 µM. On to `O=C(c1ccc2ccccc2c1)c1c(C(F)(F)F)n([O-])c2ccc(Cl)cc2[n+]1=O`, for which the GI50 was 1.85 µM and the TGI worked out at 3.42 µM. Take `CC1CCCc2c1nn(C(=O)/C=C(\N)c1ccccc1)c2N` (stereo not given): the GI50 is 10.8 µM and the TGI is over 100 µM.

For the compound `COc1ccc(CC(C)C(C)Cc2ccc(OC)c(OC)c2)cc1OC` (stereo not given), the GI50 is over 1400 µM and the TGI was over 1400 µM. `COc1ccc(/C=C2/CCc3cc4ccc(OC)cc4[o+]c32)c(O)c1`: the GI50 was 14 µM and the TGI came out at 28 µM. `O=P(c1ccccc1)(c1ccccc1)N1O[C@@H](c2ccccc2)C=C[C@H]1c1ccccc1` gave a TGI of 29.5 µM. `O=C(CNc1ccccc1Cl)Nn1c(-c2ccccc2)nc2ccccc2c1=O` showed a TGI of over 100 µM. Regarding `COc1cccc(/C=C2\CCC(C)(CN(C)C)C2=O)c1` (stereo not given), the TGI is over 100 µM. In turn, `CSc1c(C#N)c(N)n2c1C(=O)N(c1ccccc1)C2=S` displayed a TGI of over 100 µM.

In the case of `O=S1(=O)NCCCN1CCNc1nccc(-c2c(-c3cccc(O)c3)nc3sccn23)n1`, the GI50 is 18.1 µM and the TGI is over 100 µM. In turn, `CC(=O)N/N=C1\NC(=O)C[C@H]2[C@@H]3CC=C4C[C@@H](OC(C)=O)CC[C@]4(C)[C@H]3CC[C@]12C` returned a TGI of over 100 µM. For the compound `Cn1c(/C(C#N)=C/c2ccc3ccccc3c2)cc2ccccc21`, the GI50 is 0.668 µM and the TGI was over 100 µM. As for `CC1(C)OC2COC3(CNO)OC(C)(C)OC3C2O1` (stereo not given), the TGI was over 100 µM. `CC(CC(=O)Nc1ccc(NC(=O)CC(C)N=NC(N)=S)cc1)N=NC(N)=S` (stereo not given): the TGI is over 100 µM. On the same count and under the same terms, to `Clc1ccc(-c2nn3c(-c4ccncc4)nnc3s2)cc1` belongs over 100 µM; to `CO[C@]12CC(=O)C3(C(C[C@H]4CC5CC=C6C[C@@H](OC(C)=O)CC[C@]6(OC(C)=O)C5C[C@@]43C)C1)C1C[C@H]3[C@@H]4CC=C5C[C@@H](OC(C)=O)CC[C@]5(OC(C)=O)[C@H]4CC[C@]3(C)C12` (stereo not given in full), over 100 µM; to `CCN(CCO)CC1COc2ccccc2O1` (stereo not given), over 100 µM. Same read-out and setting: under `COc1nc(C#CCC(C)O)nc(OC)n1` (stereo not given) stands over 100 µM.

In the case of `COc1ccc(C2(CC(C)O)SCCCS2)cc1` (stereo not given), the TGI is over 100 µM. Same read-out and setting: under `CCOC(=O)c1ccc(N[C@@H]2c3cc4c(cc3C(C3=CC(=O)C(=O)C(OC)=C3)[C@H]3C(=O)OCC32)OCO4)cc1` (stereo not given in full) stands over 90.6 µM. As for `O=C1c2cccnc2-c2nc(-c3ccncc3)cc3c2c1nc1ccccc13`, the GI50 is 15.6 µM and the TGI was 29.6 µM. Regarding `C[C@H](Cn1ncnn1)Nc1ncc2cc(Oc3ccc(F)cc3F)c(=O)n(C)c2n1`, the GI50 was over 25 µM and the TGI is over 25 µM.

The compound `Cc1c(S(=O)(=O)/N=C(\N)Nc2ccc(Cl)cc2)sc2ccc(Cl)cc12` registered a TGI of 34.9 µM. On the same count and under the same terms, under `Cc1cc2[nH]c3[nH]c(=O)[nH]c(=O)c3c2cc1C` stands over 100 µM; under `CC(C)COP(=O)(OCC(C)C)C(NS(=O)(=O)c1ccccc1)(C(F)(F)F)C(F)(F)F`, 17.2 µM; under `CCOC(=O)C(=O)Nc1ccccc1C(F)(F)F`, over 100 µM. Turning to `COc1ccc2cc3c4cc5c(cc4cc[n+]3cc2c1OC)OCO5`, the TGI is over 100 µM. The same measure, in the same setting: to `CN(C)C(=S)S` belongs over 100 µM; to `O=C1CN2C(c3ccccc3)=NN(c3ccc([N+](=O)[O-])cc3)C2(c2ccccc2)c2cc(Cl)ccc2N1CC1CC1` (stereo not given), over 100 µM. Consider `COc1ccccc1-c1cc(=O)c2ccc(C)nc2[nH]1`, for which the TGI is over 100 µM.

Turning to `CC(=O)NNc1nc(C)c(C(=O)NNC(=O)C(=O)Nc2nc3ccc([N+](=O)[O-])cc3s2)s1`, the TGI was over 100 µM. In the case of `COc1c(Br)cc(Br)c(OC)c1-c1[nH]c(Br)c(Br)c1Br`, the TGI was 21.8 µM.

Regarding `O=c1ccc2cc3ccc4cccc5ccc(c2o1)c3c45`, the TGI was over 100 µM.

On to `COc1ccccc1/C=C/C(=O)/C=C/c1ccccc1O`, for which the GI50 was 2.18 µM and the TGI is 8.46 µM. For `CCN(CC)CCOc1ccc(N2C(=O)c3cc(OC)c(OC)cc3C2=O)cc1`, the TGI was over 100 µM. In the case of `CC(=O)[O-].CC(=O)[O-].CC(=O)[O-].CC(=O)[O-].[Mo+2].[Mo+2]`, the GI50 was over 100 µM and the TGI is over 100 µM. `CCCCCCCCCCCC[n+]1ccccc1` (tested in a mixture with another compound): the GI50 is 2.47 µM and the TGI came to 11 µM. As to `NC(=O)c1cccc(Nc2nccc(Nc3cccc(F)c3)n2)c1`, the GI50 was 8.38 µM and the TGI was over 25 µM.

In the case of `O=S(=O)(O)c1cc2ccc1/C=C\c1ccc(cc1S(=O)(=O)O)N=Nc1ccc(c(S(=O)(=O)O)c1)/C=C\c1ccc(cc1S(=O)(=O)O)N=N2`, the TGI was over 100 µM. In the case of `COC(=O)/C(C#N)=C1\CCC(C(=O)OC)N1C` (stereo not given), the TGI is over 100 µM. On to `CN(C)Cc1c[nH]c2c(NCCN)c3c(c(NCCN)c12)C(=O)c1ccccc1C3=O`, for which the GI50 was 1.19 µM and the TGI is 4.99 µM. As to `Nc1c(-c2cccc3ccccc23)c2ccc([N+](=O)[O-])cc2c(=O)n1-c1nc2ccccc2s1`, the TGI was over 74.9 µM. The same measure, in the same setting: under `N#CC(C#N)=CNC(=S)c1ccncc1` stands over 100 µM; under `C/C(CC1C2CCCC1C2)=N\NC(N)=O` (stereo not given), over 100 µM; under `Brc1cccc(Nc2nc(-c3cccs3)nc3ccc(Br)cc23)c1`, over 100 µM.
